# Results as given in PubChem BioAssay AID208 (DTP/NCI, 2004).
# Results filed as inconclusive are left out. Certain results were filed several times, with different values. The list is limited to them. The source may hold further records. The values listed for one entry repeat one measurement in other runs, samples, wells, individuals or studies.
# System: HT29 intrarenal xenograft, nude mice, tumor weight change
# Assay: NCI In Vivo Anticancer Drug Screen. Data for tumor model HT29;CX-1 Human Adenocarcinoma (MER+) (intrarenal inoculation) in NU/NU BALB/C (nude) mice
# Conditions: endpoint: mean tumor weight change, higher = larger tumour
# Method: The antitumor activity of compounds was measured in mice bearing transplantable tumors. Survival or tumor size were measured and the results are expressed as the measurement made in the treated group (T) divided by the measurement made in the vehicle treated control group (C). The tumor model used in this assay is HT29;CX-1 Human Adenocarcinoma (MER+) (intrarenal inoculation) in NU/NU BALB/C (nude) mice
# [1] = dose: 150.0 mg/kg/injection, schedule: Q04DX004 (ip), vehicle: Klucel (hydroxypropylcellulose) (HPC)
smiles,measurement,setting,value
CN(C)/N=N/c1nc[nH]c1C(N)=O,T/C,"dose: 100.0 mg/kg/injection, schedule: Q04DX004 (ip), vehicle: Klucel (hydroxypropylcellulose) (HPC)",96 % of control and 167 % of control
same,T/C,[1],64 % of control and 104 % of control
same,T/C,"dose: 225.0 mg/kg/injection, schedule: Q04DX004 (ip), vehicle: Klucel (hydroxypropylcellulose) (HPC)",77 % of control and 109 % of control
CC[C@@]1(O)C(=O)OCc2c1cc1n(c2=O)Cc2cc3ccccc3nc2-1,T/C,"dose: 8.0 mg/kg/injection, schedule: Q04DX004 (sc), vehicle: saline with Tween-80",-57 % of control and 70 % of control
same,T/C,"dose: 16.0 mg/kg/injection, schedule: Q04DX004 (sc), vehicle: saline with Tween-80",-78 % of control and 31 % of control
Oc1c(Cl)cc(Cl)cc1C=NCCSc1ccc(Cl)cc1,T/C,[1],28 % of control and 159 % of control
same,T/C,"dose: 300.0 mg/kg/injection, schedule: Q04DX004 (ip), vehicle: Klucel (hydroxypropylcellulose) (HPC)",71 % of control and 163 % of control
CCC1OCC(C(Cl)CCl)O1 (configuration not stated),T/C,"dose: 177.0 mg/kg/injection, schedule: Q01DX014 (sc), vehicle: Klucel (hydroxypropylcellulose) (HPC)","79 % of control, 107 % of control, 121 % of control"
same,T/C,"dose: 267.0 mg/kg/injection, schedule: Q01DX014 (sc), vehicle: Klucel (hydroxypropylcellulose) (HPC)","51 % of control, 68 % of control, 83 % of control"
same,T/C,"dose: 400.0 mg/kg/injection, schedule: Q01DX014 (sc), vehicle: Klucel (hydroxypropylcellulose) (HPC)","18 % of control, 35 % of control, 67 % of control"
same,T/C,"dose: 600.0 mg/kg/injection, schedule: Q01DX014 (sc), vehicle: Klucel (hydroxypropylcellulose) (HPC)",-8 % of control and 72 % of control
CC(=O)OC(C)C1C2=C(C(=O)CC1(C)O)C(=O)c1c(ccc(-c3ccc4c(c3O)C(=O)C3=C(C4=O)C(C(C)OC(C)=O)C(C)(O)CC3=O)c1O)C2=O (configuration not stated),T/C,"dose: 15.0 mg/kg/injection, schedule: Q04DX004 (ip), vehicle: saline with Tween-80",82 % of control and 113 % of control
COc1cccc2c1C(=O)c1c(O)c3c(c(O)c1C2=O)CC(O)(C(=O)CO)CC3OC1CC(N)C(O)C(C)O1 (configuration not stated),T/C,"dose: 150.0 mg/kg/injection, schedule: Q04DX004 (sc), vehicle: water",43 % of control and 73 % of control
O=P(O)(NCCCl)NCCCl,T/C,"dose: 18.75 mg/kg/injection, schedule: Q04DX004 (sc), vehicle: saline",52 % of control and 108 % of control
Cc1nnc2ncccn12,T/C,"dose: 50.0 mg/kg/injection, schedule: Q04DX004 (sc), vehicle: saline",72 % of control and 104 % of control
O=P1(N(CCCl)CCCl)NCCCO1 (configuration not stated),T/C,"dose: 25.0 mg/kg/injection, schedule: Q04DX004 (ip), vehicle: saline",61 % of control and 163 % of control
same,T/C,"dose: 40.0 mg/kg/injection, schedule: Q04DX004 (ip), vehicle: saline","61 % of control, 71 % of control, 88 % of control"
same,T/C,"dose: 50.0 mg/kg/injection, schedule: Q04DX004 (ip), vehicle: saline",33 % of control and 87 % of control
same,T/C,"dose: 90.0 mg/kg/injection, schedule: Q04DX004 (ip), vehicle: saline","43 % of control, 63 % of control, 86 % of control"
same,T/C,"dose: 100.0 mg/kg/injection, schedule: Q04DX004 (ip), vehicle: saline",6 % of control and 108 % of control
same,T/C,"dose: 200.0 mg/kg/injection, schedule: Q04DX004 (ip), vehicle: saline",-93 % of control and 37 % of control
CC1(C)OCC2OC=CC(=O)C2O1 (configuration not stated),T/C,"dose: 300.0 mg/kg/injection, schedule: Q04DX004 (sc), vehicle: saline with Tween-80",77 % of control and 119 % of control
CO[C@H](/C(C)=C/C=C/C(C)=C/c1coc(C)n1)[C@H](C)[C@H]1C[C@@H](O)[C@@]2(C)O[C@H]2/C=C/[C@@H](C)[C@@H]2C[C@@H](CC(=O)O2)C[C@H]2O[C@@H]2C(=O)O1,T/C,"dose: 0.25 mg/kg/injection, schedule: Q04DX004 (sc), vehicle: Klucel (hydroxypropylcellulose) (HPC)",36 % of control and 118 % of control
same,T/C,"dose: 0.5 mg/kg/injection, schedule: Q04DX004 (sc), vehicle: Klucel (hydroxypropylcellulose) (HPC)",5 % of control and 116 % of control
CCC1=C[C@H]2CN(CCc3c([nH]c4ccccc34)[C@@](C(=O)OC)(c3cc4c(cc3OC)N(C)[C@H]3[C@@](O)(C(=O)NC)[C@H](OC(C)=O)[C@]5(CC)C=CCN6CC[C@]43[C@@H]65)C2)C1,T/C,"dose: 1.0 mg/kg/injection, schedule: Q04DX004 (sc), vehicle: water",12 % of control and 48 % of control
O=c1[nH]c(=O)n([C@H]2CCCO2)cc1F,T/C,"dose: 355.9 mg/kg/injection, schedule: Q04DX004 (ip), vehicle: Klucel (hydroxypropylcellulose) (HPC)",39 % of control and 66 % of control
C[n+]1c(-c2cccc3ccccc23)c2cc(N)ccc2c2ccccc21,T/C,"dose: 24.0 mg/kg/injection, schedule: Q04DX004 (sc), vehicle: saline",71 % of control and 151 % of control
